Hit rate of the full screen: of about 320,000 compounds, about 200 (0.062%) were called active. This list was built around the results that the source calls inconclusive (neither active nor inactive); the mix of calls is not that of the screen. Calls follow the shape of the dose curve; as a rule, active = well fitted activation curve with a large enough effect; inconclusive = small, poorly fitted or top-dose-only effect; inactive = no such curve, though single readings can be large or run the other way. No potency is given beside an inconclusive call; the fits are too rough.
assay: qHTS assay for re-activators of p53 using a Luc reporter; conditions: H1299 p53-A138V BP100-luciferase reporter, luminescence, 24 h; series mostly up to 92.2 µM; also: nearly all actives have a fitted effect of over 45% in size
How it was run: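 H1299 (p53-null), stable ts p53-A138V + BP100-Luc; 1000 cells/well, Opti-MEM/10% FBS; cpd 4 pt, 1:5; 24 h, 37 deg C, 5% CO2; detection reagent 10 min RT; luminescence.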
Potency is read from the fitted curve at half-maximal effect; tags tell the direction and shape of the fitted curve.

Structure (SMILES) | Potency
CCCCN(Cc1cc2cc(OC)ccc2[nH]c1=O)C(=O)c1ccco1 | inactive
COc1ccccc1C(=O)NC(=S)Nc1ccccc1N1CCCC1 | inconclusive [activator, partial curve, poor fit]
CN(C)c1ccc(/C=C(\C#N)C(=O)c2ccccc2)cc1 | inconclusive [activator, single point]
O=C(/C=C/c1cccc([N+](=O)[O-])c1)Nc1ccccn1 | inactive
CCN(CC)S(=O)(=O)c1ccc(N2CCOCC2)c(NC(=O)Cc2ccc(Cl)cc2)c1 | inactive
O=C(NCc1cccs1)C1CCN(c2ccc(S(=O)(=O)N3CCOCC3)cc2Cl)CC1 | inconclusive [activator, single point]
Cc1ccc(-c2csc(-c3c[nH]c4ccccc34)n2)cc1 | inconclusive [activator, partial curve, poor fit]
CCOc1ccc(NC(=O)CC2NCCNC2=O)cc1 (configuration not stated) | inconclusive [activator, single point]
CCOC(=O)c1cc(CC)sc1NC(=O)c1cccc(N2C(=O)CCC2=O)c1 | inactive
O=C(c1cccs1)N1CCC(c2ccccc2)C1 (configuration not stated) | inconclusive [activator, full curve, poor fit]
CCN(C(=O)c1c(C)noc1C)c1c(N)n(Cc2ccccc2)c(=O)[nH]c1=O | inactive
CC1(C)CC(=O)c2cnc(N3CCN(c4ccccc4)CC3)nc2C1 | inactive
O=C(CSc1nnnn1-c1ccccc1)Nc1ccccc1 | inconclusive [activator, single point]
O=C(Nc1ccc([N+](=O)[O-])cc1)c1cc(Cl)sc1Cl | inactive
COc1ccc(C(=O)Nc2ccccc2C(N)=O)cc1 | inconclusive [activator, partial curve, poor fit]
O=C(Nc1ncc(Cc2ccc(Cl)cc2Cl)s1)c1ccc([N+](=O)[O-])cc1 | inactive
C[C@@H]1CC=C[C@H]2[C@H]1C(=O)N(Cc1ccccc1)[C@H]2c1ccc2ccccc2c1/C=C/c1ccccc1 | inactive
O=C(O)CCCN1C(=O)/C(=C\c2ccccc2OCc2ccccc2)SC1=S | inconclusive [activator, single point]
CCOC(=O)N1CCN(C(=O)CCc2ccc(S(=O)(=O)NCCc3ccccc3)cc2)CC1 | inactive
CCC(C)NC(=O)Cc1c(C)c2cc3c(cc2oc1=O)OC(C)(C)CC3 (configuration not stated) | inconclusive [activator, partial curve, poor fit]
Cc1ccc(C(=O)c2c(C)oc3c2C(=O)C(=O)c2ccccc2-3)cc1 | inactive
Cc1cc2c(cc1C)NC(CC(=O)NCc1ccccc1)C(=O)N2 (configuration not stated) | inconclusive [activator, partial curve, poor fit]
Cc1cccc(C)c1OCCCn1ccnc1 | inconclusive [activator, partial curve, poor fit]
CCOc1nc(NCc2ccco2)nc(Nc2ccccc2F)n1 | inconclusive [activator, single point]

Structure (SMILES) | Potency
Nc1ncnc2nc(Sc3ccc(Cl)cc3)[nH]c12 | inactive
CN1C/C(=C/c2cccnc2)C(=O)/C(=C/c2cccnc2)C1 | inactive
O=C(/C(C=Nc1ccc(Br)cc1)=C(/O)c1ccco1)C(F)(F)F | inconclusive [activator, partial curve, poor fit]
O=C(N/N=C/c1ccc2c(c1)OCO2)c1ccc2c(c1)OCCO2 | inconclusive [activator, partial curve, poor fit]
CC1=NN(C(N)=S)C(=O)C1N=Nc1ccccc1O (configuration not stated) | inconclusive [activator, partial curve, poor fit]
Nc1nc2c3ccccc3nc(C3CC3)n2n1 | inactive
Cc1cc(NC(=O)CSC2=NCCS2)no1 | inconclusive [activator, partial curve, poor fit]
Cc1ccc(NC(=O)Nc2ccc3c(c2)OCO3)c(Br)c1 | inactive
Clc1ccccc1/C=C/c1ccnc2ccccc12 | inactive
C=CCn1c(SCC(=O)NCC)nnc1-c1cc2c(s1)CCC(CC)C2 (configuration not stated) | inactive
CCN(CC)S(=O)(=O)c1ccc(N2CCOCC2)c(NC(=O)c2c3c(nc4ccccc24)CCC3)c1 | inactive
COc1ccc(NC(=O)c2cc(-c3ccccc3)nc3c2cnn3C(C)C)cc1 | inactive
C#CCOCCOCCOCCNc1nc(N2CCN(C(=O)CCCCCCCCCCNC(=O)[C@@H]([C@H](C)O)n3cc(C)nn3)CC2)nc(N2CCN(C(=O)CCCCCCCCCCNC(=O)[C@@H]([C@H](C)O)n3cc(C)nn3)CC2)n1 | inconclusive [activator, partial curve, poor fit]
CCOC(=O)c1c(C)[nH]c(C)c1C(=O)Cn1nnc(-c2ccccc2C)n1 | inactive
O=C(Nc1nc(-c2nc3ccccc3s2)cs1)c1ccc(S(=O)(=O)N2CCOCC2)cc1 | inconclusive [activator, full curve, poor fit]
CC(C)CN1C(=O)c2ccc(C(=O)Nc3ccc(OCC(=O)O)cc3)cc2C1=O | inactive
CCCOc1ccc(NC(=O)CC2C(=O)OCC3CCCCN32)cc1 (configuration not stated) | inconclusive [activator, single point]
COc1cccc(-c2nn3c(-c4ccccn4)nnc3s2)c1 | inconclusive [activator, partial curve, poor fit]
CCCc1cc(C(=O)Nc2cccc3ccccc23)n(C)n1 | inactive
O=C(C1=NN(c2ccccc2)C2C(=O)N(c3cccc(Cl)c3)C(=O)C12)c1ccccc1 (configuration not stated) | inactive
CCC(C)c1ccc(NC(=O)COC(=O)C2CCCC2)cc1 (configuration not stated) | inactive
COc1ccc(C(CNC(=O)c2ccco2)N2CCOCC2)cc1 (configuration not stated) | inconclusive [activator, full curve, poor fit]
O=[N+]([O-])c1ccc(CNc2cccc(F)c2)s1 | inconclusive [activator, single point]
CCCn1nnnc1SCC(=O)N1CCCc2ccccc21 | inconclusive [activator, partial curve, poor fit]

Structure (SMILES) | Potency
CC(C)c1ccc2c(c1)CCC1C(C)(CN)CCCC21C (configuration not stated) | inactive
N#C/C(=C\c1ccccn1)c1ccccn1 | inconclusive [activator, single point]
COc1ccc(CCNC(=O)CCC(=O)NC2CCCCC2)cc1OC | inconclusive [activator, single point]
Brc1ccc2c(c1)CNc1c(ncnc1N1CCOCC1)O2 | inconclusive [activator, full curve, poor fit]
Cc1c(C(=O)Nc2ccc(-c3nnc4n3CCCCC4)cc2)oc2c1ccc1ccccc12 | inactive
CCCN(CCC)CCCNC(=S)Nc1ccc2nc(N3CCN(CC)CC3)cc(C)c2c1 | inconclusive [activator, partial curve, poor fit]
O=C(Nc1nnc(-c2ccccc2)s1)c1ccccc1F | inactive
CCCCOc1cccc(C(=O)Nc2ccc(S(=O)(=O)Nc3nnc(CC)s3)cc2)c1 | inconclusive [activator, single point]
O=[N+]([O-])c1ccc2nc(/C=C/c3ccc(Cl)cc3)[nH]c2c1 | inconclusive [activator, partial curve, poor fit]
O=C(Oc1ccccc1C(=O)Nc1ccccc1)c1ccccc1Br | inconclusive [activator, partial curve, poor fit]
CC1(C)Cc2c(C#N)c(NCCc3ccccc3)nc(-c3ccco3)c2CO1 | inactive
COc1cccc(C(=O)OCC(=O)c2ccc(Br)s2)c1OC | inconclusive [activator, single point]
O=C(NC1CCCCCCC1)c1cccnc1 | inconclusive [activator, single point]
Brc1ccccc1/C=N/Nc1nc2ccccc2o1 | inconclusive [activator, full curve, poor fit]
c1nnnn1C12CC3CC(CC(C3)C1)C2 | inactive
CC(=O)NC(=O)c1ccc(-c2ccc(Cl)cc2)o1 | inconclusive [activator, partial curve, poor fit]
Cc1cccc(-n2ncc3c(N4CCC(C)CC4)ncnc32)c1 | inconclusive [activator, partial curve, poor fit]
Cc1cccc2sc(NNC(=O)c3ccc(S(=O)(=O)N4CCCC(C)C4)cc3)nc12 (configuration not stated) | inconclusive [activator, single point]
CC(=O)Nc1ccc(S(=O)(=O)Nc2nc3ccccc3nc2N2CCc3ccccc3C2)cc1 | inconclusive [activator, partial curve, poor fit]
O=C(CN1CCN(Cc2ccccc2)CC1)N/N=C/C=C/c1ccccc1[N+](=O)[O-] | inactive
CCSc1nnc(-c2ccccc2N)c(=O)[nH]1 | inconclusive [activator, full curve, poor fit]
CCN(CC)CCOC(=O)c1c(C)oc2ccc(O)cc12 | inconclusive [activator, single point]
C=CCS(=O)(=O)N1CCCC(N2CCN(c3ccccc3OC)CC2)C1 (configuration not stated) | inconclusive [activator, single point]
Cc1cc(-c2nc(C)c(C(=O)NNS(=O)(=O)c3ccc(Cl)cc3Cl)s2)no1 | inactive
